# Measured values taken from PubChem BioAssay AID360 (National Center for Advancing Translational Sciences (NCATS), 2006).
# About 550 (1.1%) of roughly 48,000 compounds were called active. Inconclusive results (about 4%) are left out. No stated cut-off is given here; in the data, active means potency below about 15 µM; inconclusive means mostly about 16 µM to 33 µM; inactive means weaker than that. Some of the results follow.
# Molecular target: Lysosomal acid glucosylceramidase (Homo sapiens) (UniProt P04062)
# Assay: Glucocerebrosidase;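 further: the screen sought inhibitors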
# Details: purified enzyme, resorufin glucoside fluorescence (screen aimed at inhibitors), 20 min
# Summary of the method: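 Wild-type enzyme at 0.2 nM final in 50mM citric acid/KH2PO4, 10mM sodium taurocholate, 0.01% tween-20, pH 5.9, with resorufin beta-D-glucopyranoside at 30 uM final. Compounds titrated, 20 min at RT, red fluorescence read; AC50 from titration.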
# Potency means the concentration at half of the fitted maximal effect.
# Sequence of UniProt P04062 (P04062 whole entry, looked up): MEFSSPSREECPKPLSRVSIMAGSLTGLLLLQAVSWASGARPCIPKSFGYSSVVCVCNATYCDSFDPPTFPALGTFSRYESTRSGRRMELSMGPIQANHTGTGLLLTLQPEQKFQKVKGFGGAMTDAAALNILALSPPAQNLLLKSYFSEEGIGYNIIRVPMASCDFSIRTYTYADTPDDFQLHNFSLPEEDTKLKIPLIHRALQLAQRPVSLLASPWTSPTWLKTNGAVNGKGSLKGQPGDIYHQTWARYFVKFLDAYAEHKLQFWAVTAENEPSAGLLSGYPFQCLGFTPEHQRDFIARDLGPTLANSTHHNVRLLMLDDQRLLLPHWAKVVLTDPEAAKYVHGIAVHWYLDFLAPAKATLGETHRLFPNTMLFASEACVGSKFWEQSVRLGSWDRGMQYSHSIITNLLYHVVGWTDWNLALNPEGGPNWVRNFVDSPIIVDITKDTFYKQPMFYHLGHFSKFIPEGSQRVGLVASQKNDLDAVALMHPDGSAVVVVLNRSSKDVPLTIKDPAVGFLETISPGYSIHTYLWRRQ
row,SMILES,Potency
1,Cc1cc(C)c2[nH]c(=O)c(C(c3nnnn3CC3CCCO3)N3CCC(C)CC3)cc2c1 (stereo unspecified),inactive: > 76.9 µM
2,CC1(C)CNC(=O)c2sc(N3CCCCC3)nc2C1,inactive: > 76.9 µM
3,N#Cc1nc(COc2ccccc2)oc1N1CCN(c2cccc(Cl)c2)CC1,inactive: > 76.9 µM
4,Cc1ccc(C(=O)CN2CCC(NC(=O)C3CCCCC3)CC2)cc1,inactive: > 76.9 µM
5,CCOC(=O)N1CCN(C(=O)CN(C)S(=O)(=O)c2ccc3c(c2)C(C)(C)C(=O)N3C)CC1,inactive: > 76.9 µM
6,COC(=O)c1ccccc1NC(=O)CN(Cc1ccccc1)S(C)(=O)=O,inactive: > 76.9 µM
7,CCN(CC)S(=O)(=O)c1cccc(-c2nnc(SCC#N)n2Cc2ccccc2)c1,inactive: > 76.9 µM
8,O=C(O)c1ccc(NS(=O)(=O)/C=C/c2ccccc2)cc1,inactive: > 76.9 µM
9,Cc1ccc(CCNC(=O)C2CCC(=O)N2Cc2cccnc2)cc1 (stereo unspecified),inactive: > 76.9 µM
10,O=C(O)C1CCCN1C(=O)Nc1ccc(F)cc1 (stereo unspecified),inactive: > 76.9 µM
11,COc1ccc(NC(=O)CSc2nnc(Cc3cccn3C)n2CCc2ccccc2)c(OC)c1,inactive: > 76.9 µM
12,CN(C)c1ccc(NC(=O)CN2CCC(C(=O)c3ccc(F)cc3)CC2)cc1,inactive: > 76.9 µM
13,Cc1cccn2c(=O)c3cc(C#N)c(=N)n(Cc4cccnc4)c3nc12,inactive: > 76.9 µM
14,COc1cc(N)ccc1NC(=O)c1cccs1,inactive: > 76.9 µM
15,O=C(CC1C(=O)NCCN1C(=O)Nc1ccccc1)Nc1ccc2c(c1)OCCO2 (stereo unspecified),inactive: > 76.9 µM
16,CCCOc1ccccc1C(=O)N(Cc1ccco1)C1CCS(=O)(=O)C1 (stereo unspecified),inactive: > 76.9 µM
17,COC(=O)CSc1nnc(-c2ccco2)n1-c1ccc(C)cc1,inactive: > 76.9 µM
18,Cn1cc(/C=N/n2cnc3scc(-c4ccccc4)c3c2=O)c2ccccc21,inactive: > 76.9 µM
19,O=C(c1cc(-c2cccs2)on1)N1CCCCC1,inactive: > 76.9 µM
20,CCCCc1n[nH]c2c1C(=O)CC(C)(C)C2,inactive: > 76.9 µM
21,CCOC(=O)N1CCC(NC(=O)c2cc(C(=O)Nc3cccc(OC)c3)ccc2CO)CC1,inactive: > 76.9 µM
22,COc1ccccc1OCc1ccc(C(=O)N2CCN(C(=O)c3ccco3)CC2)cc1,inactive: > 76.9 µM
23,CCOc1ccc(NC(C)c2cc(Cl)ccc2O)cc1 (stereo unspecified),inactive

row,SMILES,Potency
1,Cc1ccc(SCC(=O)N2CC(C)OC(C)C2)cc1 (stereo unspecified),inactive: > 76.9 µM
2,CCn1c(Cn2nnc(-c3ccccc3)n2)nnc1SCC(=O)Nc1ccccc1,active: 9.58 µM
3,C=CCN(CC=C)C(=O)C1CCC(C(=O)N(CC=C)CC=C)CC1 (stereo unspecified),inactive: > 76.9 µM
4,O=C(NCCc1ccccc1)C1CCCN(S(=O)(=O)c2cccnc2)C1 (stereo unspecified),inactive: > 76.9 µM
5,Cc1ccccc1NC(=O)c1c(O)c2cccc3c2n(c1=O)CCC3,inactive: > 76.9 µM
6,COc1ccc(CCNC(=O)Cn2nnc(-c3ccc(N4CCOCC4)cc3)n2)cc1OC,inactive: > 76.9 µM
7,C=C1CSc2nc(=O)c3c(C)c(C)sc3n21,inactive: > 76.9 µM
8,COc1ccc2ccccc2c1C1CC(=O)N2CN(C)CSC2=C1C#N (stereo unspecified),active: 14.5 µM
9,CC(C)=CC(=O)Nc1ccccc1Br,inactive: > 76.9 µM
10,COc1ccc2nc(SCC(=O)Nc3ccc(S(=O)(=O)N4CCCC4)cc3)c(C#N)cc2c1,inactive: > 76.9 µM
11,Cc1cccc(CN2CCN(CC(=O)O)C2=O)c1,inactive: > 76.9 µM
12,CC(C)C(=O)N1c2ccccc2NC2=C(C(=O)CCC2)C1c1ccc(N(C)C)cc1 (stereo unspecified),inactive: > 76.9 µM
13,COc1ccccc1N1CCN(C2=CC(=O)CCC2)CC1,inactive: > 76.9 µM
14,Cc1ccc(NC(=O)C(C)N2C(=O)C3CC=C(Cl)CC3C2=O)cc1 (stereo unspecified),inactive: > 76.9 µM
15,CCOC(=O)c1c(-c2ccc(C)cc2C)csc1NC(=O)CSc1nnnn1C,inactive: > 76.9 µM
16,CC(Sc1nnnn1C)C(=O)Nc1ccc(Oc2ccccc2)cc1 (stereo unspecified),inactive: > 76.9 µM
17,CC(NCc1ccco1)C(=O)N1CCc2ccccc2C1 (stereo unspecified),inactive: > 76.9 µM
18,Cc1cc(C(=O)Nc2ccc3c(c2)OCO3)cs1,inactive: > 76.9 µM
19,CSc1ccccc1C(=O)N1CCOCC1,inactive: > 76.9 µM
20,O=c1n(Cc2ccccc2)c2cc(Cl)cnc2n1Cc1ccccc1,inactive
21,COc1ccccc1C(=O)Oc1ccc(N2C(=O)CCC2=O)cc1,inactive: > 76.9 µM
22,O=c1c2c(nc3c(-c4ccc(Cl)cc4)c[nH]n13)CCCC2,active: 6.48 µM
23,Cc1n[nH]c(C)c1Cc1ccc(C(=O)O)cc1,inactive: > 76.9 µM

row,SMILES,Potency
1,CC1CN(c2nc3c(c(=O)[nH]c(=O)n3C)n2Cc2ccccc2F)CC(C)O1 (stereo unspecified),inactive: > 76.9 µM
2,Cc1cc(C)cc(NC(=O)N2CCC(NC(=O)c3ccc(F)cc3)CC2)c1,inactive: > 76.9 µM
3,c1ccn2c(CNc3ncnc4sccc34)nnc2c1,inactive: > 76.9 µM
4,O=C(CCc1c[nH]c2ccccc12)NCC1CCCO1 (stereo unspecified),inactive: > 76.9 µM
5,CCOC(=O)c1oc2ccccc2c1CSc1nnnn1-c1ccc(C)cc1,inactive: > 76.9 µM
6,Cc1ccc2c(c1)nnn2C1CCN(C(=O)NC23CC4CC(CC(C4)C2)C3)CC1,inactive: > 76.9 µM
7,Cn1c(=O)c2nc(Cl)n(Cc3ccc(Cl)cc3Cl)c2n(C)c1=O,inactive: > 76.9 µM
8,Cc1c(C(=O)OCc2cc(=O)n3cc(Br)ccc3n2)oc2ccccc12,inactive: > 76.9 µM
9,CCOC(=O)N1CCN(C(=O)C2CCC(CNS(=O)(=O)c3ccc(Cl)cc3)CC2)CC1 (stereo unspecified),inactive: > 76.9 µM
10,COC(=O)c1ccc(CSc2nnc3sc4ccccc4n23)o1,inactive: > 76.9 µM
11,Cc1cc(C(=O)Nc2ccccn2)cs1,inactive: > 76.9 µM
12,COc1cc(-c2c(C#N)c(=O)[nH]c3c2c(C)nn3-c2ccccc2)ccc1O,inactive: > 76.9 µM
13,CN1CCN(CC(=O)N(C)c2nc(-c3ccccc3)cs2)CC1,inactive: > 76.9 µM
14,Cc1noc(/C=C/c2ccco2)c1S(=O)(=O)N1CCC(C(=O)N2c3ccccc3CC2C)CC1 (stereo unspecified),inactive: > 76.9 µM
15,O=C(CSCc1ccc(Br)cc1)N1CCOCC1,inactive: > 76.9 µM
16,CCn1c(Cc2ccccc2)nnc1SCC(=O)Nc1cc(C)on1,inactive: > 76.9 µM
17,Cc1cccc(NC(=O)Cn2c(=O)oc3ccccc32)c1,inactive: > 76.9 µM
18,O=C(NC1CCCC1)c1cc(-c2cccs2)on1,inactive: > 76.9 µM
19,COC(=O)c1ccc(NC2(C#N)C(=O)Nc3ccccc32)cc1 (stereo unspecified),inactive: > 76.9 µM
20,CCNC(=O)CC1C(=O)N(c2ccc(F)cc2)C(=O)N1CCc1ccc(OC)cc1 (stereo unspecified),inactive: > 76.9 µM
21,CCOCC(=O)Nc1nnc(COc2ccc(Cl)cc2)s1,inactive: > 76.9 µM
22,O=c1[nH]c2cc(Cl)ccc2n1-c1ccccc1,inactive: > 76.9 µM
23,COc1ccccc1NC(=O)CN1CCC(n2nnc3cc(F)ccc32)CC1,inactive: > 76.9 µM

row,SMILES,Potency
1,O=C(CCS(=O)(=O)c1cccs1)N1CCN(c2ccc(F)cc2)CC1,inactive: > 76.9 µM
2,Clc1ccccc1Cn1nnc2c(Nc3ccccc3)ncnc21,inactive: > 76.9 µM
3,CCN1C(=O)CC(N2CCC(C(=O)OC)CC2)C1=O (stereo unspecified),inactive: > 76.9 µM
4,O=C(Cc1cccs1)Nc1cccnc1,inactive: > 76.9 µM
5,O=C(NCc1cccs1)N[C@@H](Cc1ccccc1)C(=O)O,inactive: > 76.9 µM
6,CCOC(=O)c1c(C)c(C(=O)N2CCCCCC2)c(C)n1C,inactive: > 76.9 µM
7,O=C(CCCCCN1C(=O)CCC1=O)Nc1ccc2c(c1)OCO2,inactive: > 76.9 µM
8,O=C(CN(Cc1ccc2c(c1)OCO2)C(=O)CNC(=O)c1ccco1)NC1CCCCC1,inactive: > 76.9 µM
9,O=C(CC(C(=O)O)C1CCCO1)Nc1cccc(C(F)(F)F)c1 (stereo unspecified),inactive: > 76.9 µM
10,Cc1cccc(OCc2nnc(SCC(=O)N3CCN(C(=O)c4ccco4)CC3)n2C)c1C,inactive: > 76.9 µM
11,COc1ccc(NC(=O)C23CCC(C2)C(C)(C)C3=O)cc1 (stereo unspecified),inactive: > 76.9 µM
12,CCCCOc1ccccc1C1C(C(N)=O)=C(C)Nc2nnnn21 (stereo unspecified),inactive: > 76.9 µM
13,CCOC(=O)N1CCC(NC(=O)c2cc(S(=O)(=O)N3CCc4ccccc43)cn2C)CC1,inactive: > 76.9 µM
14,O=C1c2oc3ccc(Br)cc3c(=O)c2C(c2cccc(F)c2)N1CCO (stereo unspecified),inactive: > 76.9 µM
15,CCCn1c(-c2ccc(OC)cc2)nc2nc3ccccc3nc21,inactive: > 76.9 µM
16,Cc1nc2nc(-c3cccnc3)nn2c(C)c1Cl,inactive: > 76.9 µM
17,O=C(c1cc2c(=O)oc3ccccc3c2s1)N1CCOCC1,inactive: > 76.9 µM
18,Cc1ccc(NC(=O)CSc2nnc(-c3ccc(S(=O)(=O)N4CCCC4)cc3)o2)cc1C,inactive: > 76.9 µM
19,COc1ccc(-n2nnc3c(=O)n(Cc4ccccc4C)cnc32)cc1,inactive: > 76.9 µM
20,COc1ccc(-n2nc(C(=O)N3CCN(Cc4ccc5c(c4)OCO5)CC3)c3ccccc3c2=O)cc1,inactive: > 76.9 µM
21,O=C(CSc1nnc(Cn2nnc(-c3ccccc3)n2)n1-c1ccccc1)Nc1ccccc1,inactive: > 76.9 µM
22,CCOC(=O)c1[nH]c2ccccc2c1NC(=O)CN1CCCCC1,inactive: > 76.9 µM
